Reference: US9533055 (ARMAGEN TECHNOLOGIES, dated 2017)

Biological target: T1, human TNFα (human, UniProt P01375 partial chain)
T1 construct: Bought; also called tumor necrosis factor-α
Assay: ELISA, plated human TNFα, linear regression of binding curve
Experimental: Binding of the HIRMAb-TNFR fusion protein to TNFα was determined with an ELISA. The capture reagent was commercially available human TNFα. The positive control in the assay was commercially available recombinant human TNFR-II:human IgG1 Fc fusion protein, designated TNFR: Fc, and the negative control was human IgG1/κ. The TNFα was dissolved in 0.1 M NaHCO3/pH=9.0 and plated overnight at 4 C in 100 μl/well (0.2 μg/well). After washing with 0.01 M Tris/0.15 M NaCl/pH=7.4 (TBS), the wells were blocked with 1% bovine serum albumin (BSA) in TBS for 30 min. A volume of 100 μl/well of HIRMAb-TNFR, TNFR:Fc, or human IgG1k was plated for 60 min at room temperature. After washing with TBS plus 0.05% Tween-20 (TBST), a goat anti-human IgG-alkaline phosphatase conjugate was incubated (0.2 μg/well) for 60 min. Following washing with TBST, color detection at 405 nm was performed with an ELISA plate reader after color development with para-nitrophenylphosphate and termination of the reaction with 1.2 M NaOH. […] Therefore, the data were fit to a linear regression analysis to compute the slope of the binding curve. The reciprocal of the slope is equal to the KD/Amax ratio, where KD is the binding constant of TNFR binding to the plated TNFα, and Amax is the maximum absorbance. […] The affinity of either recombinant TNFR:Fc or the HIRMAb-TNFR fusion protein for human TNFα was measured with an ELISA.

KD/Amax ratio: 1.4 nM
B1: HIRMAb-TNFR fusion protein (other)
heavy: QVQLQQSGPELVKPGALVKISCKASGYTFTNYDIHWVKQRPGQGLEWIGWIYPGDGSTKYNEKFKGKATLTADKSSSTAYMHLSSLTSEKSAVYFCAREWAYWGQGTLVTVSA[in this place human IgG1 constant region]SSLPAQVAFTPYAPEPGSTCRLREYYDQTAQMCCSKCSPGQHAKVFCTKTSDTVCDSCEDSTYTQLWNWVPECLSCGSRCSSDQVETQACTREQNRICTCRPGWYCALSKQEGCRLCAPLRKCRPGFGVARPGTETSDVVCKPCAPGTFSNTTSSTDICRPHQICNVVAIPGNASRDAVCTSTSPTRSMAPGAVHLPQPVSTRSQHTQPTPKPSTAPSTSFLLPMGPSPPAEGSTGD
light: DIQMTQSPSSLSASLGERVSLTCRASQDIGGNLYWLQQGPDGTIKRLIYATSSLDSGVPKRFSGSRSGSDYSLTISSLESEDFVDYYCLQYSSSPWTFGGGTKMEIKRTVAAPSVFIFPPSDEQLKSGTASVVCLLNNFYPREAKVQWKVDNALQSGNSQESVTEQDSKDSTYSLSSTLTLSKADYEKHKVYACEVTHQGLSSPVTKSFNRGEC
notes: IgG-decoy receptor fusion: TNFR-II ECD fused to the carboxyl terminus of each heavy chain of the chimeric HIRMAb; also called fusion protein of HIRMAb and TNFR ECD; HIRMAb-TNF-decoy receptor fusion protein
